Assay [1] addresses T1, human Nodal protein (R&D systems, 3218-ND-025/CF) (human, UniProt Q96S42 238-347).
T1 construct: Bought protein
T1 sequence (looked up): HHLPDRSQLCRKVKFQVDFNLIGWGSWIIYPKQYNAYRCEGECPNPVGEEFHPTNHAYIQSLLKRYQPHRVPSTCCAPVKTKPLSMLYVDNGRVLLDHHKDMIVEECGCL
In words: SPR (BIAcore), human Nodal fixed on CM5 chip, fusion protein as analyte 31.25-500 nM, bivalent analyte model. As to the method: (§1) The binding affinity between human Nodal protein and the human Lefty A fusion protein variant was measured using BIAcore.
(§2) Specifically, 50 RU of human Nodal (R&D systems, 3218-ND-025/CF) protein was fixed to a CM5 sensor chip. The human Lefty A fusion protein and their variants were diluted to concentrations of 500, 250, 125, 62.5 and 31.25 nM and injected sequentially from lower concentrations. Next, each dilution was associated by injection at a flow rate of 30 μl/min for 3 minutes and dissociated using running buffer for 5 minutes. The chip was regenerated using 15 μl of 50 mM NaOH. The association and dissociation rates for each cycle were evaluated using the “Bivalent analyte” model in BIAevaluation software version 4.1, and the BIAcore data are summarized in Table 14 below.
(In SPR one partner is held on a chip, and binding of the other changes the refractive index at the surface.)

Assay [2] deals with T1, human Nodal protein (R&D systems, …). In words: SPR (BIAcore), human Nodal fixed on CM5 chip, fusion protein as analyte 31.25-500 nM, bivalent analyte model; second step. As to the method:
as §1, §2

B1: CX201 (42 LFc variant with V63A, R66Q, G132R and a change at R135) (Fc fusion)
chain: LTEEQLLGSLLRQLQLSEVPVLDRADMEKLVIPAHVRAQYVALLQRSHGDRSGGKGFSQSFREVAGRFLASEASTHLLVFGMEQRLPPNSELVQAVLRLFQEPVPKAALHRHGGLSPRSAQARVTVEWLRVRDDGSNRTSLIDSRLVSVHESGWKAFDVTEAVNFWQQLSRPRQPLLLQVSVQREHLGPLASGAHKLVRFASQGAPAGLGEPQLELHTLDLRDYGAQGDCDPEAPMTEGTRCCRQEMYIDLQGMKWAKNWVLEPPGFLAYECVGTCQQPPEALAFNWPFLGPRQCIASETASLPMIVSIKEGGRTRPQVVSLPNMRVQKCSCASDGALVPRRLQPSGGGGSGGGGSGGGGS[no letters for human IgG1 Fc]
As for B1, the Kd in assay [1] worked out at 124 nM. In assay [2], this molecule showed a ka2 of 0.00546 and a kd2 of 0.0341.

B2: CX197 (42 LFc with E24G, S38K, V42T, K50E, A55T, V63A, R66Q, G132R and R135A) (Fc fusion)
chain: LTGEQLLGSLLRQLQLKEVPTLDRADMEELVIPTHVRAQYVALLQRSHGDRSGGKGFSQSFREVAGRFLASEASTHLLVFGMEQRLPPNSELVQAVLRLFQEPVPKAALHRHGALSPRSAQARVTVEWLRVRDDGSNRTSLIDSRLVSVHESGWKAFDVTEAVNFWQQLSRPRQPLLLQVSVQREHLGPLASGAHKLVRFASQGAPAGLGEPQLELHTLDLRDYGAQGDCDPEAPMTEGTRCCRQEMYIDLQGMKWAKNWVLEPPGFLAYECVGTCQQPPEALAFNWPFLGPRQCIASETASLPMIVSIKEGGRTRPQVVSLPNMRVQKCSCASDGALVPRRLQPSGGGGSGGGGSGGGGS[no letters for human IgG1 Fc]
In turn, B2 showed a Kd in assay [1] of 534 nM. In assay [2], this molecule came in with a ka2 of 0.000277 and a kd2 of 2.3e-05.

B3: 42 LFc (human Lefty A 42 kDa fragment L22 to P366 with R74G/R77G/R132G, fused at its C-terminus to human IgG1 Fc via the SGGGGSGGGGSGGGGS linker) (Fc fusion)
chain: LTEEQLLGSLLRQLQLSEVPVLDRADMEKLVIPAHVRAQYVVLLRRSHGDRSGGKGFSQSFREVAGRFLASEASTHLLVFGMEQRLPPNSELVQAVLRLFQEPVPKAALHGHGRLSPRSAQARVTVEWLRVRDDGSNRTSLIDSRLVSVHESGWKAFDVTEAVNFWQQLSRPRQPLLLQVSVQREHLGPLASGAHKLVRFASQGAPAGLGEPQLELHTLDLRDYGAQGDCDPEAPMTEGTRCCRQEMYIDLQGMKWAKNWVLEPPGFLAYECVGTCQQPPEALAFNWPFLGPRQCIASETASLPMIVSIKEGGRTRPQVVSLPNMRVQKCSCASDGALVPRRLQPSGGGGSGGGGSGGGGS[no letters for human IgG1 Fc]
notes: Expressed in CHO-S cells and purified on Protein A; also called X-42; 42 LFc fusion protein
Turning to B3, the Kd in assay [1] stood at 72.9 nM. Moreover, in assay [2], the ka2 worked out at 0.00819 and the kd2 came to 0.0446.

The values above are taken from patent publication US20220380424A1 (CHONG KUN DANG PHARMACEUTICAL, published 2022).
